Experimental data: patent US20260166082A1, “METHODS OF TREATMENT WITH T CELL THERAPY AND IMMUNOMODULATORY AGENT MAINTENANCE THERAPY” (Celgene Corporation, priority 2022, published 2026)

Tests used:
[1] = system: human subjects with multiple myeloma (MM) who had an inadequate response after frontline therapy with autologous stem cell transplant (ASCT); format: in vivo; conditions: n = 8; after lenalidomide maintenance, following anti-BCMA CAR-T cell infusion
Description: Additionally, subjects have measurable disease.
Eight subjects received lenalidomide maintenance.
Cytokine release syndrome (graded by Lee Criteria 2014) was low grade. Grade 1 CRS occurred in 14 subjects (45.2%), Grade 2 in 4 subjects (12.9%), and ≥Grade 3 in 0 subject. Median duration of cytokine release syndrome was 3 (range 1-7) days. Moreover, investigator identified neurotoxicity (iiNT) occurred in 2 subjects (6.5%). […] Grade 3 iiNT signs and symptoms were aphasia, bradykinesia, abnormal reflexes, and tremor. Median duration of neurotoxicity was 3.5 (range 2-5) days.
Grade 1 AEs are mild; Grade 2 AEs are moderate; Grade 3 AEs are severe; Grade 4 AEs are life-threatening; and Grade 5 AEs result in death. […] 94% of patients experienced a Grade 3 or 4 adverse event. Grade 3/4 infections included pneumonia (n=1, 3.2%) human ehrlichiosis (n=1, 3.2%), viral pneumonia (n=1, 3.2%) and upper respiratory infection (n=1, 3.2%). […] For grade ≥3 neutropenia and thrombocytopenia occurring within 1 month of anti-BCMA CAR T cell infusion and not resolved at month 1, recovery was defined as attaining laboratory results ≤grade 2 (time to recovery was calculated by recovery/censoring date−infusion date+1).

[2] = system: human subjects with multiple myeloma (MM) who had an inadequate response after frontline therapy with autologous stem cell transplant (ASCT)

Q: How did the “Anemia, any grade” value [1] turn out when `Nc1cccc2c1CN(C1CCC(=O)NC1=O)C2=O` (stereo not shown) [lenalidomide, 3-(4-amino-1-oxo-1,3-dihydro-2H-isoindol-2-yl) piperidine-2,6-dione] was run?
A: Its value is 0 n.

Q: What about the “Anemia, grade 3/4” value [1] of the same molecule?
A: Its value is 0 n.

Q: And the “CRS, any grade” value [1]?
A: The value was 0 n.

Q: What about the “CRS, grade 3/4” value [1] of the same molecule?
A: Its value is 0 n.

Q: What about the “Leukopenia, any grade” value [1] of the same molecule?
A: Its value is 0 n.

Q: And the “Leukopenia, grade 3/4” value [1]?
A: Its value is 0 n.

Q: What about the “Thrombocytopenia, grade 3/4” value [1] of the same molecule?
A: The value was 0 n.

Q: What about the status of responses ([2]; 8 subjects on lenalidomide maintenance after anti-BCMA CAR-T cells, subsequent analysis) of the same molecule?
A: Its status of responses is “all responses were ongoing”.

Q: And the “subjects who achieved a complete response or better” value ([2]; 8 subjects who received lenalidomide maintenance after anti-BCMA CAR-T cell infusion (6 out of 8))?
A: The value was 75%.

Q: What about the progressive disease events ([2]; subjects who received lenalidomide maintenance after anti-BCMA CAR-T cells, earlier analysis) of the same molecule?
A: The progressive disease events was “no progressive disease events occurred”.
